Assay results from PubChem BioAssay AID504832 (National Center for Advancing Translational Sciences (NCATS), 2011).
Screen size: about 310,000 compounds; about 18,000 (5.8%) were called active. This list was built around the results that the source calls inconclusive (neither active nor inactive); the mix of calls is not that of the screen. The call rests on the fitted dose curve; in most records, active means well fitted inhibition curve with a large enough effect; inconclusive means small, poorly fitted or top-dose-only effect, or another doubt; inactive means no such curve, though single readings can be large or run the other way. Potencies of inconclusive entries are left out as doubtful fits.

Experiment: Primary qHTS for delayed death inhibitors of the malarial parasite plastid, 48 hour incubation
Settings: P. falciparum luciferase growth in erythrocytes; series mostly up to 28.7 µM; activity change, negative = inhibition: at the top concentration
In short: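 Read-out is firefly luciferase luminescence from an integrated reporter in P. falciparum, so falling signal marks reduced parasite growth. Infected erythrocytes were at 2% hematocrit and 0.1% parasitemia (final) in Albumax-supplemented RPMI 1640.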
On the % scale 0 is the no-effect control and ±100 the full control effect; potency means the concentration at half of the fitted maximal effect; tags describe the fitted curve by direction and shape.

With CSCCC(NC(=O)c1cccc([N+](=O)[O-])c1)c1nc2ccccc2[nH]1 (configuration not stated) as the compound, how does the Potency read?
Its Potency is inconclusive [inhibitor, single point].

With COc1cc(-c2cc(-c3ccc(N)cc3)[nH]c(=O)c2C#N)cc(OC)c1OC as the compound, how does the Potency read?
Its Potency is inconclusive [inhibitor, single point].

Which Potency does the source give for O=C(CCCN1C(=O)/C(=C/c2cccs2)SC1=S)NNC(=O)c1cccnc1 here?
The Potency was inconclusive [inhibitor, single point].

For CC(=O)c1c(C)[nH]c(C(=O)Nc2cccc(C)c2C)c1C, which “activity change, negative = inhibition” value is on record?
Its value is inactive: 5.13%.

With COc1ccc(S(=O)(=O)N2CCCCC2)cc1NC(=O)COc1ccccc1 as the compound, how does the Potency read?
Its Potency is inconclusive [inhibitor, single point].

For C=CCN1C(=O)c2ccccc2Sc2ccc(C(=O)N3CCC4(CC3)OCCO4)cc21, which Potency is on record?
Its Potency is inconclusive [inhibitor, partial curve, poor fit].

Which “activity change, negative = inhibition” value does the source give for O=C(O)CCC(=O)NNc1ncnc2ccccc12 here?
The value was inactive: 22.9%.

Which Potency does the source give for Cc1c(CCOC(=O)CC23CC4CC(CC(C)(C4)C2)C3)sc[n+]1CC(=O)c1ccccc1 here?
Its Potency is inconclusive [inhibitor, partial curve, poor fit].

For COc1ccc(NC(=O)c2c3c(nc4ccccc24)CCC3)cc1S(=O)(=O)N1CCOCC1, which Potency is on record?
Its Potency is inconclusive [inhibitor, single point].

With Cc1cc(C)cc(OCC(=O)Nc2ccc(N3CCCC3)cc2)c1 as the compound, how does the Potency read?
The Potency was inconclusive [inhibitor, single point].

For CCOC(=O)Nc1ccc2c(CN3CCN(S(=O)(=O)c4ccccc4)CC3)cc(=O)oc2c1, which Potency is on record?
Its Potency is active: 9.28 µM.

For COc1ccc(-c2csc(NC(=O)C3CSC4(C)CCC(=O)N34)n2)c(OC)c1 (configuration not stated), which “activity change, negative = inhibition” value is on record?
Its value is inactive: -26.6%.

With CCc1nnc(NC(=O)CN2CCN(Cc3ccc(F)cc3)CC2)s1 as the compound, how does the Potency read?
Its Potency is inconclusive [inhibitor, single point].

With COc1ccc(OC)c(-c2cc(C(=O)N3CCCc4ccccc43)no2)c1 as the compound, how does the Potency read?
Its Potency is inconclusive [inhibitor, single point].

With O=C(Nc1cc(Sc2nc3ccccc3s2)cc([N+](=O)[O-])c1)c1cccc(F)c1F as the compound, how does the Potency read?
Its Potency is inconclusive [inhibitor, single point].

Which Potency does the source give for CCOCCCN(C)C1CCN(C(=O)c2oc3ccccc3c2NC(=O)Cc2cccc([N+](=O)[O-])c2)CC1 here?
Its Potency is inconclusive [inhibitor, single point].

For CC(=O)Nc1sc(C)c(C)c1C(=O)OCC(=O)NCc1ccc(Cl)cc1, which Potency is on record?
The Potency was inconclusive [inhibitor, single point].
